About 800 (1.6%) of roughly 50,000 compounds showed an effect of 50% or more. Some of the results follow.
Each compound was assayed against Bcl-2-like protein 10 (Homo sapiens) (UniProt Q9HD36) (assay: TR3 peptide-Bcl-B binding displacers, biochemical primary FP assay, phenotype converters (AID 1240;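 note: 0% = Bcl-B with tracer peptide and DMSO and 100% = tracer peptide lacking Bcl-B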)). Settings: GST-Bcl-B / FITC-TR3 peptide fluorescence polarization; stronger effect = higher value; compound at 3.75 mg/L.
Chain of UniProt Q9HD36 (Q9HD36 whole entry, looked up): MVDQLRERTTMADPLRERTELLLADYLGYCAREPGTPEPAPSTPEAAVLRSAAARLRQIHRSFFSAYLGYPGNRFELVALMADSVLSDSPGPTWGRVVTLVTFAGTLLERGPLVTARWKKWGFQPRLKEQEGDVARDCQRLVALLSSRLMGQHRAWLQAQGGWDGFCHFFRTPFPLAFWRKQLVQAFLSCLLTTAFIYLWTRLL

Structure (SMILES)	displacement [%]
Cc1ccc(OCC(=O)Nc2cc(C)cc(C)c2)cc1	4.9
O=[N+]([O-])c1cc(-n2ncnc2-c2ccc3c(c2)OCO3)ccc1F	16.6
CC(=O)C1=C(O)C(=O)N(CCN(C)C)C1c1ccccc1F (stereo not drawn)	0.9
COC1=C(c2ccccc2)C(=O)c2ccccc2C1=O	-8.5
O=C(NCc1ccccc1)C(NC(=O)c1ccccc1)=C1CCCCC1	8.5
O=C(Nc1ccc(Br)cc1)c1cc2ccccc2o1	3.4
Cc1ccc(N2CCN(/N=C\c3ccccn3)CC2)cc1	-8.8
C/C(=N\OCC(=O)N/N=C/c1cc(Br)cc(Br)c1O)c1cccs1	1.7
COc1cccc2sc(NC(=O)/C=C/c3ccc([N+](=O)[O-])cc3)nc12	8.7
CC(C)NC(=O)/C(=C/c1ccccc1)c1ccccc1	9.6
O=C(CNc1ccc2ccccc2c1)N/N=C/c1ccc(Br)c([N+](=O)[O-])c1	-4.4
Cc1cccc(CC2CC(=O)N(c3ccc(C)cc3Br)C2=O)c1 (stereo not drawn)	-3.3
CCc1ccccc1NC(=O)COc1ccc(Br)cc1C(C)(C)C	-2.6
COC(=O)C1=C(C)N(CCc2ccc(OC)c(OC)c2)C(=O)/C1=C\c1ccc2c(c1)OCO2	-44.1
CCOc1ccc2nc(SCc3c[nH]c4cc([N+](=O)[O-])ccc34)sc2c1	-5.3
Cc1ccc(N2CC(C(=O)Nc3ccccc3)CC2=O)cc1 (stereo not drawn)	9.9
Cc1cccc(C=Nc2ccc(O)cc2)c1	-8.4
CC(c1ccccc1)N1C(=O)/C(=C\c2ccc(Cl)cc2Cl)SC1=S (stereo not drawn)	-0.4
O=C(Oc1ccc(/C=N/NC(=O)C2COc3ccccc3O2)cc1)c1cccnc1 (stereo not drawn)	-9
CN1C(=O)NC(=O)/C(=C/c2ccc(-c3ccc(Cl)cc3Cl)o2)C1=O	72.6
COc1ccc(OC)c(S(=O)(=O)NCC2CCCO2)c1 (stereo not drawn)	-0.6
Nc1ccc(-c2nc3ccc(-c4ccc5nc(-c6ccc(N)cc6)[nH]c5c4)cc3[nH]2)cc1	28.8
COc1cc(OC)c(/C=N/NC(=O)c2cccc(Cl)c2)cc1Br	-0.3

Structure (SMILES)	displacement [%]
S=C(NCc1cccnc1)NC12CC3CC(CC(C3)C1)C2	-3.5
COc1ccc2c(c1OC)C(=O)OC2Nc1ncccc1C (stereo not drawn)	7.2
COc1cc(/C=C(\C#N)c2nc3ccccc3[nH]2)c(Br)cc1O	-96.8
Cc1ccc(P(=O)(CSC(=N)N)c2ccc(C)cc2)cc1	5.5
COc1ccc(S(=O)(=O)N(CC(=O)Nc2ccc(C)c(C)c2)c2ccc(C)cc2)cc1OC	17.2
CCCC(=O)Nc1ccc(NC(=O)c2ccc(Br)cc2)cc1	6.4
CCOC(=O)C1=C(c2ccccc2)N=c2s/c(=C\c3cccnc3)c(=O)n2C1c1cccc(OC)c1OC (stereo not drawn)	5.1
C#CCOC(=O)CCN1C(=O)c2cccc3cccc(c23)C1=O	9.8
Cc1ccc(NC(=O)CN(c2ccc(Br)cc2)S(C)(=O)=O)c(C)c1	5
Cc1ccc(-c2csc(NC(=O)c3ccc(Cl)c([N+](=O)[O-])c3)n2)cc1	-15.4
Cn1c(-c2ccc(C=O)o2)nc2c3ccccc3c3ccccc3c21	20.9
COc1cc(OC)c([N+](=O)[O-])cc1/C=C1/C(C)=C(C#N)c2nc(N)c(C#N)c(C)c21	2.7
O=C(COc1ccccc1[N+](=O)[O-])Nc1cc(C(F)(F)F)cc(C(F)(F)F)c1	-4.5
O=C1/C(=C/c2ccc(C(F)(F)F)cc2)SC(=S)N1Cc1ccccc1	1.8
COC(=O)c1cnn2c(C(F)(F)F)cc(-c3ccc(Br)cc3)nc12	-7.2
COc1ccc(-n2c(=O)c3c(n4c(=S)[nH]nc24)-c2ccccc2CC32CCCCC2)cc1	-29.4
O=C(c1ccccc1)c1ccc(N2CCOCC2)c([N+](=O)[O-])c1	11.8
O=C(O)CN(c1ccc(Cl)c(C(F)(F)F)c1)S(=O)(=O)c1ccccc1	8.2
CCOc1cc(C(=O)Nc2ccc(OCc3ccccc3)cc2)cc(OCC)c1OCC	-1.8
Cc1ccc(C(=O)CSc2nc3cc(C)c(C)cc3[nH]2)cc1	-9.4
COc1ccccc1CNS(=O)(=O)c1ccc(NC(C)=O)cc1	3.1
CCOC(=O)/C(C#N)=N\Nc1ccc(C(N)=O)cc1	7.2
Cc1ccsc1/C=C1\SC(=S)N(CCC(=O)O)C1=O	2.5

Structure (SMILES)	displacement [%]
C#CCSc1nc(N)c(C#N)c(-c2ccc(O)cc2)c1C#N	-104
Cc1ccc(NC(=O)CN(c2cccc(Br)c2)S(=O)(=O)c2ccccc2)cc1	0.8
CCN(CC)S(=O)(=O)c1ccc(-c2ccc(S(=O)(=O)N(CC)CC)cc2)cc1	0.7
CN1C(=O)N(C)C2(c3ccccc3)Nn3c(s/c(=C/c4ccc([N+](=O)[O-])cc4)c3=O)=NC12c1ccccc1 (stereo not drawn)	-3.4
CCOc1ccccc1NC(=O)C1C2CCC3C(CCC21)C3(Cl)Cl (stereo not drawn)	-3.3
O=C(CSc1ncccn1)N/N=C/c1ccc(F)cc1	1.9
COc1ccccc1/C=C1\C(=O)NC(=O)N(c2ccc(Br)cc2)C1=O	-17.8
c1ccc(C2=NCCn3cccc32)cc1	7.6
CCC1=NN2C(=N)/C(=C/c3ccc(-c4ccc(F)cc4)o3)C(=O)N=C2S1	69.2
CCOC(=O)c1ccc(NS(=O)(=O)c2c(C)cc(C)cc2C)cc1	-0.7
O=C1NC2C(NC(=O)N2c2ccccc2)N1c1ccccc1 (stereo not drawn)	2.6
COc1cccc(C2(c3cccc(OC)c3)CC2C(=O)Nc2cccc(C(F)(F)F)c2)c1 (stereo not drawn)	-15.7
CCCCOc1ccccc1C1C(C(=O)OC)=C(C)N(C)C(C)=C1C(=O)OC	-6.4
CC1CCN(CCCCOc2ccc(C(C)(C)C)cc2)CC1	-2
O=C(Nc1ccncc1)c1ccc(NC(=O)c2ccco2)cc1	10.7
Cc1c(NS(=O)(=O)c2ccc(F)cc2)cccc1[N+](=O)[O-]	-2.5
COc1ccc(C(=O)N=Nc2c(O)n(CN3CCCC3)c3ccccc23)cc1	-7
N/C(=N\OC(=O)c1cccc(F)c1)c1ccccc1	-7.1
COc1ccc(C(=O)Nc2cc(-c3nc4cc(Cl)cc(Cl)c4o3)ccc2C)cc1	-0.9
CC1CC(Nc2ccccc2)c2ccccc2N1C(=O)c1sc2ccccc2c1Cl (stereo not drawn)	0.4
O=C1/C(=C\c2ccccc2OS(=O)(=O)c2ccccc2)SC(=S)N1c1ccccc1	-6.6
COc1cc(OC)cc(C(=O)N/N=C(\C)CC(=O)Nc2ccccc2-c2ccccc2)c1	-44.2

— PubChem BioAssay AID1240 (Sanford-Burnham Center for Chemical Genomics, 2008)
